The record followed here is the supplement of paper PMC10126150.

Values marked as one replicate rest on one cluster of the flow cell; about a third of the high ones do not repeat.
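Note: ATP exposure 15 min at 22 °C before imaging.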

This data set relates to ATP. The data set can be described thus: switch fluorescence ratio, 500 uM ATP over buffer (Cy3 cluster intensity, sum of 5 cycles each) (fold (ratio)); higher = stronger signal-on switching upon ATP binding; sequences stand for … in TCGTCGGCAGCGTCAGATGTGTATAAGAGACAGTTTTTTTTTTTTTTTTTTTTTTTTT…TC. The settings on record: aptamer strand: ATP DNA aptamer (quencher-CACCTGGGGGAGTATTGCGGAGGAAGG + anchor), 100 nM annealed; ATP concentration: 500 uM; one replicate. The method, boiled down: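 Imaging in selection buffer was followed by imaging after 15 min with 500 uM ATP at 22 °C, for Cy3-labelled switching-strand clusters annealed to 100 nM quencher-labelled ATP aptamer on a modified Illumina MiSeq flow-cell. Five of these buffer/ATP cycles ran, separated by NaOH stripping and re-annealing. The fluorescence ratio per cluster is summed target-cycle over summed buffer-cycle Cy3 intensity, averaged per switch-domain sequence; clusters outside 100-1000 RFU were removed.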
On to TCTCAGACCA, for which the switch fluorescence ratio was found to be 0.981.

ACTGGCCCTG: the switch fluorescence ratio is 1.05.

Take TCGCACTGAT: the switch fluorescence ratio amounted to 1.07.

For the sequence CGTGGAGAA, the switch fluorescence ratio came out at 1.

As for ATGTCTTTTA, the switch fluorescence ratio stood at 1.01.

For AGCTGGCGCG, the switch fluorescence ratio worked out at 1.02.

TACTGAGGTT: the switch fluorescence ratio worked out at 0.986.

Take CAAAACTCTC: the switch fluorescence ratio stood at 1.8.

On to ATACCAGCAC, for which the switch fluorescence ratio was found to be 1.25.

Consider TTATGATTGA, for which the switch fluorescence ratio is 1.01.

Turning to TGCAAGAATC, the switch fluorescence ratio turned out to be 1.

In the case of GAAATGAAGC, the switch fluorescence ratio came to 1.01.

Turning to CGCAAAAATG, the switch fluorescence ratio was found to be 1.

GGTGTACCTG: the switch fluorescence ratio is 0.996.

CCGTCCCTCG: the switch fluorescence ratio was determined as 1.23.

As to ATGCTTCGAC, the switch fluorescence ratio was 1.04.

On to TAGTCGTGAC, for which the switch fluorescence ratio was determined as 1.03.

On to CATCTACGGG, for which the switch fluorescence ratio was 1.09.

For GGGTGCGAGG, the switch fluorescence ratio worked out at 1.01.

Take GGGAGCCAGA: the switch fluorescence ratio is 0.992.

Take CCAGAGAAAC: the switch fluorescence ratio came to 1.09.

CATGTGAGAT: the switch fluorescence ratio amounted to 0.983.

Regarding TTGTTCACCA, the switch fluorescence ratio came to 1.01.

As for TGCCACGTTT, the switch fluorescence ratio is 1.03.

For the sequence GCGACTTAGT, the switch fluorescence ratio amounted to 0.975.

On to ATGGGGCTTC, for which the switch fluorescence ratio came out at 0.954.

Take AATCGTGGCT: the switch fluorescence ratio turned out to be 1.05.

For the sequence AAAGTCACAT, the switch fluorescence ratio turned out to be 1.02.

As to TGCCGTTTTA, the switch fluorescence ratio came to 1.

Regarding TACGGCTTGG, the switch fluorescence ratio came out at 1.03.

ATTTGAAAGG: the switch fluorescence ratio was determined as 0.983.

On to AAACTGGAA, for which the switch fluorescence ratio came out at 1.02.

As for TCATGGGGC, the switch fluorescence ratio was 0.965.

Turning to ACTTAGTAAG, the switch fluorescence ratio was found to be 0.998.

As for GACGGCTACA, the switch fluorescence ratio was determined as 1.1.

On to TGTTTCGGCC, for which the switch fluorescence ratio came to 1.06.

For the sequence GGCACTATAG, the switch fluorescence ratio amounted to 1.03.

With GTCCGGATTC, the switch fluorescence ratio came out at 0.996.

With TCCTACTCA, the switch fluorescence ratio was found to be 1.32.

With TAAGAGTCTC, the switch fluorescence ratio came to 0.972.

ACCACGGCTT: the switch fluorescence ratio was determined as 1.02.

Take GCGGCTGCGG: the switch fluorescence ratio stood at 0.973.

CGACAGGGAT: the switch fluorescence ratio stood at 1.03.

For the sequence AGGGCAAGGC, the switch fluorescence ratio was 1.12.

Regarding GGGGACGAGA, the switch fluorescence ratio was found to be 1.01.

In the case of CGTTAATG, the switch fluorescence ratio amounted to 1.01.

As to GAAATAGTTC, the switch fluorescence ratio amounted to 1.02.

In the case of AGATGAATAG, the switch fluorescence ratio is 1.04.

Take GAGTGGATAT: the switch fluorescence ratio was determined as 1.01.

ATGAATTTCT: the switch fluorescence ratio amounted to 0.987.

Turning to ACTAGATGAA, the switch fluorescence ratio is 1.01.

As to AGTGATACGC, the switch fluorescence ratio turned out to be 1.08.

For CTGAAAAAAA, the switch fluorescence ratio stood at 0.956.

With CCCGTAGGGG, the switch fluorescence ratio turned out to be 0.957.

On to TAAAAAGGAG, for which the switch fluorescence ratio turned out to be 0.954.

For TACCTTGA, the switch fluorescence ratio is 1.08.

Take CGGTTCTGGG: the switch fluorescence ratio stood at 1.

As for GGAAAGCTAT, the switch fluorescence ratio was 0.975.

With ATGGTGGTAC, the switch fluorescence ratio was found to be 1.05.

Turning to TCGTGATGTC, the switch fluorescence ratio worked out at 0.978.

Regarding TTGGATAAAA, the switch fluorescence ratio worked out at 1.01.

With TTCTGTGTCC, the switch fluorescence ratio worked out at 0.984.

GAGAACGGGA: the switch fluorescence ratio turned out to be 0.986.

Take AGTAGAAAAG: the switch fluorescence ratio is 0.999.

Take TTCTTTTAAA: the switch fluorescence ratio worked out at 1.02.

Turning to GGTGTCTCGG, the switch fluorescence ratio was 0.988.

On to GCTTTCATAC, for which the switch fluorescence ratio stood at 1.25.

For CGGTAGGCG, the switch fluorescence ratio was found to be 0.944.

For the sequence TTTCCGTTGT, the switch fluorescence ratio was determined as 1.01.

With GGGTCGTGGA, the switch fluorescence ratio is 1.

For GCCGAAGGGA, the switch fluorescence ratio worked out at 1.46.

In the case of CCATTTTATA, the switch fluorescence ratio was 0.97.

In the case of TGCTGGCAGG, the switch fluorescence ratio is 0.98.

Consider GTCTAGAGCC, for which the switch fluorescence ratio was 0.994.

Consider AAAGTCCGTT, for which the switch fluorescence ratio worked out at 0.99.

Consider TGCGACCTAA, for which the switch fluorescence ratio is 1.08.

With TTGCGCTGGT, the switch fluorescence ratio was 0.997.

Consider CCTGTGTCTA, for which the switch fluorescence ratio worked out at 1.13.

For the sequence TGAGGAGGC, the switch fluorescence ratio was 1.06.

Turning to TCATTATCAG, the switch fluorescence ratio came out at 1.01.

On to AGGAAGATG, for which the switch fluorescence ratio is 0.995.

GGGTTCGGTC: the switch fluorescence ratio stood at 1.01.

With CACAGTGGA, the switch fluorescence ratio came to 1.02.

Regarding TTGCTCTTGA, the switch fluorescence ratio was 1.01.

Take GAACGGGGTT: the switch fluorescence ratio was determined as 0.986.

For AATTAAATGC, the switch fluorescence ratio turned out to be 1.03.

In the case of CCGTGCTTT, the switch fluorescence ratio is 1.12.

On to AAGATTCAAT, for which the switch fluorescence ratio was determined as 0.98.

Take TTGGACACA: the switch fluorescence ratio was determined as 1.05.

Turning to TGAGACAGGG, the switch fluorescence ratio came to 0.976.

Take CAGCAAGCCA: the switch fluorescence ratio is 1.33.

CGTATCGGAA: the switch fluorescence ratio was found to be 1.02.

As to GAAATCTTGT, the switch fluorescence ratio amounted to 1.02.

Take GTAGTTCAGT: the switch fluorescence ratio is 0.985.

With AATATGTTAG, the switch fluorescence ratio is 0.977.

With CGTGTGGAGG, the switch fluorescence ratio worked out at 1.01.

Consider CGCCAAAATG, for which the switch fluorescence ratio was 1.67.

GTATGAAGTA: the switch fluorescence ratio came out at 0.99.

For CATCCCATGA, the switch fluorescence ratio amounted to 1.07.

Consider TAGGATTGCG, for which the switch fluorescence ratio came out at 0.983.

Consider CTCCAGTTA, for which the switch fluorescence ratio worked out at 1.13.

Take GCGTTCGCG: the switch fluorescence ratio was 1.01.

As for GTTAAATATT, the switch fluorescence ratio amounted to 1.01.

Turning to GCTAGGCCTG, the switch fluorescence ratio came to 1.02.

As for AGTTGTACAG, the switch fluorescence ratio came to 1.

As for TTACTCAA, the switch fluorescence ratio turned out to be 1.05.

Regarding TTAATCAGA, the switch fluorescence ratio came out at 0.994.

GCGGGAATGC: the switch fluorescence ratio was 1.48.

As to TATGTTACTT, the switch fluorescence ratio was 1.03.

On to TATCGGTGGC, for which the switch fluorescence ratio is 0.978.

TCAGACCACG: the switch fluorescence ratio is 0.992.

For the sequence ATTTGGAGTG, the switch fluorescence ratio amounted to 1.01.

Take TACACTTTAC: the switch fluorescence ratio amounted to 2.08.

Consider GTCAATAAAG, for which the switch fluorescence ratio turned out to be 0.999.

With ACAAGGTCTA, the switch fluorescence ratio was 1.

Turning to TTAGCGCTGT, the switch fluorescence ratio is 1.03.

As for TCGTTAAATG, the switch fluorescence ratio came to 0.987.

In the case of CACTGAGAGC, the switch fluorescence ratio is 1.02.

For the sequence TTGACATAGT, the switch fluorescence ratio was determined as 1.01.

For GCTACGGATA, the switch fluorescence ratio stood at 1.45.
